Data: PubChem BioAssay AID1346428 (National Center for Advancing Translational Sciences (NCATS), 2018)
Where “and” joins values, the source holds several entries; their conditions need not be identical. Identical values can stand only once. The whole screen tested about 48,000 compounds, of which about 1,200 (2.5%) were called active. About 2% were inconclusive and are not listed.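 How the source made its calls: active means activation of at least 60% and not above a set upper limit (about 1 call in 100 departs from these limits); inconclusive means activation of 40% to 60%, or above that upper limit; inactive means activation under 40%.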 The list shows a part of the results.

Each compound was assayed against Probable G-protein coupled receptor 32 (Homo sapiens) (UniProt O75388) (assay: qHTS for Agonists of Human Resolvin D1 Receptor DRV1). Settings: CHO-K1 GPR32 beta-arrestin PathHunter luminescence, 90 min; at 76.9 µM; hits give high values; zero percent set by DMSO-only wells.
Chain of UniProt O75388 (O75388 whole entry, looked up): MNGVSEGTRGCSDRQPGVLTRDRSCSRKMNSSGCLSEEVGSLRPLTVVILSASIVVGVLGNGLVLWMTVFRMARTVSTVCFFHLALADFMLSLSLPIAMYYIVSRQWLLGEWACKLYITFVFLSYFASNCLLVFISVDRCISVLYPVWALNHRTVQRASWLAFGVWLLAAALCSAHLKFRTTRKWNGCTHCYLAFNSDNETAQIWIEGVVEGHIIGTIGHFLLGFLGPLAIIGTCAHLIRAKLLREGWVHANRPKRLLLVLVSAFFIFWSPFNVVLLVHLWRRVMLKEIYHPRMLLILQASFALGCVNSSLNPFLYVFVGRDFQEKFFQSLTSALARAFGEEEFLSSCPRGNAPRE
Outline: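 Using DMSO wells as EC0, agonist-induced signal was taken as chemiluminescence from beta-Gal reconstituted upon beta-arrestin recruitment to GPR32 in CHO-K1 cells after 90 min compound treatment.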
Further: 0% is about no effect.

activation, active:
CCCn1ccc2c(OCC(=O)Nc3ccc(OC)c(OC)c3)cccc2c1=O 85.6%
O=C(CC(c1cccs1)N1Cc2ccccc2C1=O)Nc1cccc(F)c1 (stereo not given) 61.1%

activation, inactive:
CN1CCc2c(sc3c2C(=O)NC(c2ccc(OC(=O)c4ccc(Cl)cc4)cc2)N3)C1 (stereo not given) 32.9%
CNC(=O)c1ccc(NC(=O)COc2ccc(-c3nn(C)c(=O)c4ccccc34)cc2)cc1 23.5%
CCCCN(C)C(=O)Cn1cnc2sc(C)c(S(=O)(=O)N3CCN(c4ccccc4OC)CC3)c2c1=O -2.4%
CCn1ccnc1CC1COc2ccccc2O1 (stereo not given) 14.4% and -8.31%
O=C1c2oc3ccccc3c(=O)c2C(c2cccc(Br)c2)N1c1ccccn1 (stereo not given) 2.14%
Cc1ccccc1NC(=O)Nc1cccs1 -9.41%
Cc1ccc(OCC(=O)N(Cc2sccc2C)C2CCS(=O)(=O)C2)cc1 (stereo not given) -22.2%
Cc1cc(=O)n2nc(N3CCC(C(=O)NCc4ccc(Cl)cc4)CC3)sc2n1 -4.98%
Cc1ccc2onc(CC(=O)N3CCN(c4cccc(C)c4C)CC3)c2c1 -14.7%
CCOC(=O)c1[nH]c2ccccc2c1NC(=O)c1cc(OCC)c(OCC)c(OCC)c1 17.9%
Clc1ccc(Nc2nc(-c3ccccc3)c3cc(Cl)ccc3n2)cc1 -4%
COc1ccc(-c2noc(CSc3nnc(-c4ccncc4)n3-c3ccc(C)c(C)c3)n2)cc1 -27.8%
CCOc1ccc(NC(=O)Cn2c(CCC(=O)O)ccc2-c2ccc(C)cc2)cc1 -12.3%
Cc1ccccc1C(=O)Nc1cccc(C(=O)OCc2cc(=O)n3nc(C4CC4)sc3n2)c1 -6.21%
COc1cc(NC(=O)CC(C)S(=O)(=O)c2cc3c4c(c2)CCN4C(=O)CC3)cc(OC)c1 (stereo not given) 6.23%
COc1ccc(Cn2c(CO)cnc2SCC(=O)NCc2ccco2)cc1 19.7%
Cc1ccc(C)c(CN2C(=O)c3ccccc3Sc3ccc(C(=O)NCc4ccc5c(c4)OCO5)cc32)c1 -20.3%
Cc1ccc([N+](=O)[O-])cc1S(=O)(=O)N1CCn2cccc2C1c1ccc(F)c(F)c1 (stereo not given) -15.5%
COc1ccc(NC(=O)c2c(NC(=O)c3cccc(C)c3)sc3c2CCCC3)cc1 18%
COc1cc2nc(SCC(=O)Nc3cccc(C)c3)n3nc(-c4ccccc4)nc3c2cc1OC 8.24%
COc1ccc(-c2nc(Cn3c(SCc4ccc(F)cc4)nc4cccnc43)c(C)o2)cc1 -17%
CC(=O)c1cccc(NC(=O)c2ccc3nc(C(C)C)oc3c2)c1 -3.56%
O=C(CSc1nc2sc3c(c2c(=O)[nH]1)CCCC3)Nc1ccccc1F 3.33%
CCOc1ccc(-c2nnc(SCC(=O)Nc3cccc(Cl)c3C)o2)cc1 -19.4%
CCCNC(=O)CSc1cn(CC(=O)N2CCCCCC2)c2ccccc12 -24.5%
Cc1ccc2oc(C(=O)Nc3ccc(S(=O)(=O)Nc4nc(C)cc(C)n4)cc3)cc(=O)c2c1 -5.51%
Cc1ccc2nc(CN3CCN(S(=O)(=O)c4ccc(F)cc4)CC3)oc2c1 3.85%
CC(C)Oc1ccc(CNS(=O)(=O)c2ccc(-c3cc(C(F)(F)F)on3)s2)cc1 -1.86%
Cc1ccc(NC(=O)CCn2cnc3onc(-c4ccc(F)cc4)c3c2=O)c(Br)c1 9.61%
COc1ccc(CCNC(=O)CCn2c(=O)c3ccccc3n(Cc3ccccc3C)c2=O)cc1OC -3.39%
Cc1c(-c2nc(-c3ccc4c(c3)OCO4)no2)nnn1-c1cccc(C(F)(F)F)c1 -12.3%
Cc1ccc(Cl)cc1N1CCN(C(=O)COCc2cc(-c3ccc4c(c3)OCO4)on2)CC1 -12.8%
Cc1cc2c(cc1S(=O)(=O)Nc1cccc(Cl)c1C)OCCN2C -18%
COc1ccc(-c2nc3ccccc3o2)cc1NC(=O)c1ccc(-c2cccc(Cl)c2C)o1 23.4%
Cc1ccc2ccc(Cl)cc2n1 0.0415%
O=c1cc(O)c(Cl)c[nH]1 -4.47%
Cc1ccc(CNC(=O)C2CCCN(Cc3nc(-c4cccc(C)c4)oc3C)C2)cc1 (stereo not given) -6.44%
c1ccc(OCc2ccc(CCCN3CCOCC3)cc2)cc1 39.7%
COc1cccc(NC(=O)C2CCN(c3nnc(-n4c(C)ccc4C)s3)CC2)c1 -18.2%
CC1=C(C(=O)Nc2cccc(C(F)(F)F)c2)C2(CCN(C(C)C)CC2)OC1=O 0%
CCN(CC)CCNC(=O)c1ccc2c(=O)n3nc(Nc4ccccc4)sc3nc2c1 -2.91%
O=C(CCCn1c(=O)c2ccccc2n(Cc2cccc(F)c2)c1=O)NCc1ccccc1Cl -5.14%
O=C(Nc1ccc(S(=O)(=O)N(Cc2ccccc2)c2ccccc2)cc1)c1ccc(F)cc1 -5.35%
CCCCNC(=O)c1sc2ncccc2c1-n1cccc1 -19%
O=C(CCc1ccccc1)N1CCc2c([nH]c3ccccc23)C1c1ccc(F)cc1 (stereo not given) -39.3%
O=C(NCCCc1nc2ccccc2n1Cc1ccccc1F)c1ccco1 -1.18%
CCOC(=O)Cn1c(=O)n(-c2ccc(Cl)cc2)c2nc(-c3ccc(Cl)cc3)nc(C(N)=O)c21 -8.32%
Cc1cc2oc(C(=O)Nc3c(C)n(C)n(-c4ccccc4)c3=O)cc(=O)c2cc1C -5.92%
COc1ccc(-c2cc(C(=O)Nc3c(C)n(C)n(-c4ccccc4)c3=O)no2)cc1 9.79%
COC(=O)C(CCSC)NC(=O)c1cc2c(n(-c3ccccc3)c1=O)CC(C)(C)CC2=O (stereo not given) 14%
CN1C(=O)c2ccccc2Sc2ccc(NC(=O)c3ccc(C#N)cc3)cc21 26.7%
Cc1cccc(NS(=O)(=O)c2ccc3c(c2)CCCN3C(=O)C2CCC2)c1C 6.13%
Cc1nn(C(C)(C)C)c(OC(=O)c2c(F)cccc2F)c1Sc1ccccc1 -2.3%
COc1ccc(NC(=O)CN(c2ccc(C)cc2)S(=O)(=O)c2cccs2)cc1 8.7%
COc1cc(CNc2ccc3[nH]c(=O)[nH]c3c2)cc(Cl)c1OCc1ccc(F)cc1 -1.6%
Cc1ccc2c(=O)cc(C(=O)Nc3nc4ccc(Cl)cc4s3)oc2c1 -8.28%
Cc1cccc(C(=O)Nc2ccccc2OCc2cc(=O)n3c(C)csc3n2)c1 11%
O=C(Nc1ccc(C(=O)OCc2cc(=O)n3c4c(sc3n2)CCCC4)cc1)c1cccc(F)c1 -16.1%
Cc1csc2nc(-c3cccc(NC(=O)c4c(F)cccc4F)c3)cn12 -2.85%
O=C(Cn1cc(S(=O)(=O)Cc2ccccc2F)c2ccccc21)NCc1ccccc1 0.932%
COc1ccc(CCNc2nc3c(c(=O)n(C)c(=O)n3C)n2Cc2ccccc2Cl)cc1OC -7.5%
O=C(NCCc1ccccc1)c1cc(-c2ccc(Cl)c(Cl)c2)on1 -20.2%
CCOc1ccc(Nc2c3c(nc4nncn24)CCC3)cc1 -14.5%
COc1ccc(C(=O)OCc2cc(=O)n3nc(C4CC4)sc3n2)cc1OC -9.04%
COc1cc(OC)cc(N2C(=O)CSC23C(=O)Nc2ccccc23)c1 (stereo not given) -14.4%
Cc1c(CC(=O)NCc2ccccc2Cl)c(=O)oc2cc(O)ccc12 37.3%
Cc1ccc2nc(-c3c[nH]c4ccccc34)c(Nc3ccc(F)cc3)n2c1 3.62%
Cc1ccc(CNC(=O)C(C)n2c(=O)cc(-c3ccccc3)c3c(C)nn(C)c32)cc1 (stereo not given) -24.3%
Cc1ccc(-c2nnn3c2nc(NCc2ccc4c(c2)OCO4)c2ccccc23)cc1 35.5%
COc1ccccc1N1CCN(C(=O)c2ccc3c(c2)CCN3S(=O)(=O)c2ccccc2)CC1 -14.7%
Cc1oc(-c2ccccc2Cl)nc1CSc1nncn2c1cc1occc12 -21%
COc1ccc(Br)cc1CNC(=O)Cn1ncn2nc(-c3cccs3)cc2c1=O 0.201%
O=C(CCS(=O)(=O)c1cccc2nonc12)Nc1ccc(F)cc1F -8.05%
COc1ccc2c(Sc3ccccc3)c(C(=O)NCc3cc(Br)ccc3OC)[nH]c2c1 -17.6%
COc1ccccc1CNC(=O)c1ccc(CSc2nc3ccncc3n2Cc2cccc(F)c2)cc1 -9.91%
Cc1ccc(OCC(=O)Nc2nc(-c3ccc(Br)cc3)ns2)cc1 16.1%
O=C(NCCc1ccc(F)cc1)C(=O)NCC(c1cccs1)S(=O)(=O)c1ccccc1 (stereo not given) -1.34%
CCOc1ccccc1CNc1nc2nc(C)c(CC(=O)OC)c(=O)n2[nH]1 12.6%
Cc1cccc(-c2nc(C)c(CCNC(=O)C(=O)Nc3ccc(C)c(C)c3)s2)c1 8.26%
Cc1cc(C)c(/C=C2\C(=O)Nc3ccccc32)[nH]1 -11.5% and -26.2%
CN/C(=C\[N+](=O)[O-])NCCSCc1csc(CN(C)C)n1 10.7%
O=C(CSc1nc(=O)[nH]c2c1CCC2)NCc1ccc(F)cc1 -6.93%
COc1ccc(Cl)cc1S(=O)(=O)N1CCN(C(=O)c2cc(-c3ccc(Br)cc3)n[nH]2)CC1 1.12%
